Laboratory results reported in the antibiotic and cytotoxicity screens of Wong et al. (2023).
This is one part of the list.

Tests used:
[1] = system: HSkMC (human skeletal muscle cells); experiment: cytotoxicity call (relative viability < 0.9); details: 10 µM
[2] = system: HepG2; experiment: cytotoxicity call (relative viability < 0.9); details: 10 µM
[3] = system: S. aureus RN4220; experiment: growth inhibition call (relative growth <= 0.2); details: 50 µM

| SMILES | cytotoxicity call [1] | cytotoxicity call [2] | growth inhibition call [3] |
| --- | --- | --- | --- |
| C[C@@H]1CN([C@H](C)CO)C(=O)Cc2cc(NC(=O)Nc3ccc(C(F)(F)F)cc3)ccc2O[C@H]1CN(C)C(=O)Nc1ccc(C(F)(F)F)cc1 | active | inactive | inactive |
| COc1ccc(-c2cnc3c(c2)C(=O)N([C@H](C)CO)C[C@@H](C)[C@H](CN(C)C(=O)Cc2cccnc2)O3)cc1 | inactive | inactive | inactive |
| C[C@H](CO)N1C[C@H](C)[C@@H](CN(C)C(=O)Nc2cccc3ccccc23)Oc2ccc(NC(=O)NC3CCCCC3)cc2C1=O | inactive | inactive | inactive |
| Cc1ccc(S(=O)(=O)Nc2ccc3c(c2)C(=O)N([C@@H](C)CO)C[C@H](C)[C@@H](CN(C)S(=O)(=O)c2ccccc2)O3)cc1 | inactive | inactive | inactive |
| C[C@H]1CN([C@@H](C)CO)C(=O)Cc2cc(NC(=O)CCN3CCOCC3)ccc2O[C@H]1CN(C)S(=O)(=O)c1cccs1 | inactive | inactive | inactive |
| C[C@@H]1CN([C@H](C)CO)C(=O)c2cc(NC(=O)Cc3ccccc3)ccc2O[C@@H](C)CCCCO[C@@H]1CN(C)Cc1ccccc1 | inactive | inactive | inactive |
| C[C@@H]1CN([C@@H](C)CO)C(=O)CCCn2cc(nn2)CO[C@H]1CN(C)S(=O)(=O)c1ccc(-c2ccccc2)cc1 | inactive | inactive | inactive |
| Cn1nnnc1SCC(=O)Nc1ncccn1 | inactive | inactive | inactive |
| CCO[C@H]1OC(C(=O)N2CCN(Cc3ccccc3)CC2)=C[C@@H](c2cn(C(C)=O)c3ccccc23)[C@@H]1CCCOC(=O)NCCCCCC(=O)NO | inactive | inactive | inactive |
| Cc1ccc(S(=O)(=O)Nc2ccc3c(c2)C(=O)N([C@@H](C)CO)C[C@H](C)[C@@H](CN(C)C(=O)CCC(F)(F)F)OCCCC[C@H](C)O3)cc1 | inactive | inactive | inactive |
| CN1C(=O)c2cc(NC(=O)Cc3cccs3)ccc2OC[C@@H]2O[C@H](CC(=O)NCc3ccc(-c4ccccc4)cc3)CC[C@@H]21 | inactive | active | inactive |
| C[C@@H]1CN([C@H](C)CO)C(=O)c2cc(C#CCN(C)C)cnc2O[C@@H]1CN(C)S(=O)(=O)c1ccccc1 | inactive | inactive | inactive |
| O=C(C[C@H]1CC[C@@H]2NC[C@@H](O)COC[C@H]2O1)NCCN1CCCCC1 | inactive | inactive | inactive |
| CN(C)c1ccc2nc3ccc(N(C)C)cc3[s+]c2c1.O.[Cl-] | active | active | inactive |
| C[C@@H]1CCCCO[C@@H](CN(C)C(=O)Nc2ccc3c(c2)OCO3)[C@H](C)CN([C@H](C)CO)C(=O)c2cc(NS(=O)(=O)c3ccc(F)cc3)ccc2O1 | inactive | inactive | inactive |
| C[C@@H]1CN([C@H](C)CO)C(=O)c2cc(NC(=O)Nc3ccccc3)ccc2O[C@@H](C)CCCCO[C@@H]1CN(C)S(=O)(=O)c1cccs1 | inactive | inactive | inactive |
| C[C@@H]1CN([C@H](C)CO)C(=O)Cc2cc(NC(=O)Nc3cccc4ccccc34)ccc2O[C@H]1CN(C)C(=O)Nc1cccc2ccccc12 | inactive | inactive | inactive |
| O=C(O)COCC(=O)Nc1cnccn1 | inactive | inactive | inactive |
| O=C(C[C@H]1C=C[C@H](NS(=O)(=O)c2ccccc2)[C@H](CO)O1)NCc1ccncn1 | inactive | inactive | inactive |
| C[C@H](O)C#Cc1cnc2c(c1)C(=O)N([C@@H](C)CO)C[C@@H](C)[C@@H](CN(C)C(=O)CN1CCOCC1)O2 | inactive | inactive | inactive |
| COc1cc(OC)nc(N=CNO)n1 | inactive | inactive | inactive |
| CN(CC(=O)Nc1ccc(F)cc1F)S(=O)(=O)c1ccc2c(c1)c(=O)n(C)c(=O)n2C | inactive | inactive | inactive |
| CN1CCN(S(=O)(=O)c2ccc(CN)cc2)CC1 | inactive | inactive | inactive |
| CCCNC(=O)N[C@H]1C=C[C@@H](CC(=O)N2CCN(C)CC2)O[C@@H]1CO | inactive | inactive | inactive |
| O=C(O)c1ccno1 | inactive | inactive | inactive |
| C[C@@H]1CN([C@@H](C)CO)C(=O)Cc2cc(NC(=O)Cc3cn(C)c4ccccc34)ccc2O[C@H]1CN(C)S(C)(=O)=O | inactive | inactive | inactive |
| N/C(=N/O)c1cnc2n(c1=O)CCS2 | inactive | inactive | inactive |
| C[C@H](CO)N1C[C@H](C)[C@H](CN(C)S(=O)(=O)c2ccc(F)cc2)OCCCC[C@H](C)Oc2ccc(NC(=O)Nc3ccc4c(c3)OCO4)cc2C1=O | inactive | inactive | inactive |
| O=C(C1=C[C@@H](c2ccc3c(c2)OCO3)C[C@@H](OCCCCO)O1)N1CCN(Cc2ccc3c(c2)OCO3)CC1 | inactive | inactive | inactive |
